Measured values taken from publication PMC6919601, “Identification of Plasmodium dipeptidyl aminopeptidase allosteric inhibitors by high throughput screening” (PLoS ONE, 2019).
About 230 (0.21%) of roughly 110,000 compounds showed an effect of 50% or more. The list shows a part of the results.

What follows are molecules tested against DPAP1 (Plasmodium falciparum, UniProt Q8IIJ9) (assay: primary screen, percent inhibition; read by cleavage of a fluorogenic dipeptide substrate; higher = more effect of the substance).
Set-up: species or system P. falciparum D10 trophozoite lysates; single well
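Also: 30 min substrate incubation versus DMSO and 10 µM JCP410 controls.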

Sequence of DPAP1 (Q8IIJ9 whole entry, looked up): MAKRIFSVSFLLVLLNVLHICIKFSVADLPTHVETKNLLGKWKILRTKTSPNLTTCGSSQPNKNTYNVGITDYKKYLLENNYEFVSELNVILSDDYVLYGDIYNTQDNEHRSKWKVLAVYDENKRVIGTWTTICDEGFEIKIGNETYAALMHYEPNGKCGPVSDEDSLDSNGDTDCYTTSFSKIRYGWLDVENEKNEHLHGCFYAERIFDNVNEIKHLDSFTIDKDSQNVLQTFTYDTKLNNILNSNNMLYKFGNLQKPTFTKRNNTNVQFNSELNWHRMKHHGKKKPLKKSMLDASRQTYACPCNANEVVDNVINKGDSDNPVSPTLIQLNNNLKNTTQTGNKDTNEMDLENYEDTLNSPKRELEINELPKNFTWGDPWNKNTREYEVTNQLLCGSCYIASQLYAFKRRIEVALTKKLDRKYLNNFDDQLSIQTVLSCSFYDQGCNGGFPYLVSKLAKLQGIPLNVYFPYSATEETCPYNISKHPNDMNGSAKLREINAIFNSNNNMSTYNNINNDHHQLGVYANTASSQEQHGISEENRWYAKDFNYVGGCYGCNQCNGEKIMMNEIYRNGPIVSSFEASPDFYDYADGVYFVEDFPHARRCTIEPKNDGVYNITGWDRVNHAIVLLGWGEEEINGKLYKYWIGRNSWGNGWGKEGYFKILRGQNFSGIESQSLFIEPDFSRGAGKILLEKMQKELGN

Row | Structure (SMILES) | % Inhibition @ 10 uM
1 | COc1cc(-c2noc(CCCC(=O)N3CCCCC3)n2)cc(OC)c1OC | 0.347%
2 | CCCCn1nnc2sc3c(c2c1=O)CCCC3 | 0.561%
3 | Cc1nn(CC(=O)NCCC(C)C)c(=O)c2cccn12 | -6.64%
4 | CCN1C(=O)c2ccc(C(=O)NCc3ccc(C(=O)O)cc3)cc2C1=O | -1.24%
5 | CCCn1c2ccccc2c2cnn(CC(=O)NC(C)CCc3ccccc3)c(=O)c21 (stereo not shown) | 1.43%
6 | O=C(NC1CCCCC1)c1cc2c(ccc3ccccc32)o1 | 49%
7 | N#CC1=C(N)OC2=C(C(=O)CCC2)C1c1ccc(Cl)cc1Cl (stereo not shown) | -0.128%
8 | CCN(CC)C(=O)CSc1n[nH]c(-c2ccccc2OC)n1 | -3.75%
9 | Cc1ccnc(NC(=O)C2c3ccccc3C(=O)N(C3CCCC3)C2c2cccs2)c1 (stereo not shown) | 2.24%
10 | CCN1CCN(Cc2cc(=O)oc3cc(C)ccc23)CC1 | 7.8%
11 | Cc1ccccc1S(=O)(=O)Cc1ccc(C(=O)NCC2CCN(C(C)c3ccccc3)C2)o1 (stereo not shown) | 3.47%
12 | Cc1nc2sc(C(=O)NCc3ccc(Cl)cc3)c(N)c2c(C)c1C | -4.35%
13 | CCCC(=O)C1=C(Nc2ccc3ccccc3c2)CC(C)(C)CC1=O | 0.121%
14 | O=C(NC(c1ccccc1)c1ccccc1)C1CCN(S(=O)(=O)c2cccnc2)CC1 | 0.947%
15 | CN(Cc1ccccc1)S(=O)(=O)c1cc(Br)cnc1N | 2.32%
16 | O=C(NCC1CCCO1)c1nn2c(C(F)(F)F)cc(-c3ccccc3)nc2c1Cl (stereo not shown) | 3.96%
17 | COc1ccc(C2(CNC(=O)/C=C/c3ccco3)CCCC2)cc1OC | 0.587%
18 | CCOC(=O)C1=C(C)N=c2s/c(=C\c3ccc(C)o3)c(=O)n2C1c1ccccc1OC (stereo not shown) | 3.06%
19 | COc1ccc(OC)c(CNc2ccc(Br)c(C)c2)c1 | 3.27%
20 | Cc1c(CNC(=O)c2cc3nc(-c4cccs4)cc(C(F)(F)F)n3n2)cnn1C | -2.9%
21 | CC(CC(=O)N1CCN(S(=O)(=O)c2ccc(Cl)cc2)CC1)n1cncn1 (stereo not shown) | -2.05%
22 | Nc1ccccc1C(=O)NCCCCNC(=O)c1ccccc1N | -0.28%
23 | CCSc1nc2ccc(OC)cc2cc1C#N | -0.864%
24 | Cc1nn(C(C)C(=O)NCCN(C)C)c(=O)c2c1sc1ccccc12 (stereo not shown) | -4.93%
25 | CCc1nn(CCCC(=O)NCCC(C)C)c(=O)c2cc3occc3n12 | -3.79%

Row | Structure (SMILES) | % Inhibition @ 10 uM
26 | COc1ccccc1CNC(=O)CC(C)C | -6.24%
27 | CC(C)CC(NC(=O)NCc1ccncc1)C(=O)NCC#N (stereo not shown) | 0.744%
28 | O=C(CSCc1c(Cl)cccc1Cl)Nc1ccc(C(=O)O)cc1 | 2.67%
29 | COc1cc(CN2CCN(S(=O)(=O)c3ccc(Cl)cc3)CC2)ccc1OCc1ccccc1 | 3.47%
30 | COc1ccc(N2CCN(Cc3cc(Br)ccc3OC)CC2)cc1 | 1.38%
31 | CC1=C(C#N)C(c2ccccc2F)C2=C(c3ccccc3C2=O)N1C (stereo not shown) | -5.63%
32 | CCCOc1ccc(C(=O)Nc2ccccc2N2CCN(C(=O)C(C)C)CC2)cc1 | 0.316%
33 | COc1ccc(-c2nc3ccccc3o2)cc1OC | 1.57%
34 | Nc1nonc1C(=O)OCC(=O)N1CCCCC1 | 4.42%
35 | CC(C)(C)OC(=O)N[C@@H](Cc1ccc(O)c([N+](=O)[O-])c1)C(=O)NCC#N | 4.63%
36 | CN1C(=O)c2ccccc2C(C(=O)NCc2ccc(F)cc2)C1c1cn(C)c2ccccc12 (stereo not shown) | 2.93%
37 | O=C(c1cnn2c(C(F)(F)F)cc(-c3cccs3)nc12)N1CCC2(CC1)OCCO2 | -2.26%
38 | O=C(Cn1ncc2c(Cl)cccc21)NCc1cccs1 | 3.84%
39 | N#C/C(=C\c1ccc(Cl)cc1Cl)c1nc(-c2ccc([N+](=O)[O-])cc2)cs1 | -6.18%
40 | Cc1ccccc1C1C2=C(O)CCCC2=Nc2nc3ccccc3n21 (stereo not shown) | 7.8%
41 | c1ccc2c(c1)ccc1nc(-c3ccc4c(c3)OCO4)c3c(c12)CCCC3 | -2.69%
42 | CCSc1nnc(-c2ccc(C)c(S(=O)(=O)N3CCN(C)CC3)c2)c2ccccc12 | -4.51%
43 | CCOC(=O)N1CCN(C(=O)c2oc3ccc(S(=O)(=O)N4CCCCCC4)cc3c2C)CC1 | 2.59%
44 | NC(=O)c1cnc2ccccc2n1 | 5.13%
45 | COc1cc2c(cc1OC)C(c1cccc(Br)c1)N(C(C)=O)CC2 (stereo not shown) | 1.08%
46 | Cc1ccccc1C(=O)OC(C)CN1CCN(C)CC1 (stereo not shown) | -3.63%
47 | COc1ccccc1N1CCN(Cc2ccc(N(C)C)cc2)CC1 | 1.63%
48 | COc1ccc(C2C(C(=O)c3ccc(F)cc3)=C(O)C(=O)N2Cc2ccco2)cc1OC (stereo not shown) | 5.52%
49 | O=C1C2C3C=CC(C4CC34)C2C(=O)N1CCc1ccccc1 (stereo not shown) | -4.33%
50 | CCc1ccc(C2=Nn3c(nnc3-c3cccc(F)c3)SC2)cc1 | 1.91%

Row | Structure (SMILES) | % Inhibition @ 10 uM
51 | Cc1ccc(S(=O)(=O)N2CC=C(c3c(C)n(CC(O)CN4CCCC4)c4ccccc34)CC2)cc1 (stereo not shown) | 0.66%
52 | CCCCNCc1c(C(=O)O)c(C)n(Cc2ccccc2F)c1C | 1.41%
53 | Cc1ccc(NC(=O)CN(Cc2ccccc2)S(=O)(=O)c2ccc3nc(C)sc3c2)nc1 | 0.586%
54 | CN1CCN(c2ccc3nnc(CCC(=O)Nc4ccccn4)n3n2)CC1 | -3.43%
55 | CC1C(=O)CC(c2ccc(Cl)cc2)NC1c1ccc(Cl)cc1 (stereo not shown) | -0.142%
56 | CC(=O)Nc1ccc(CN2CCSCC2)cc1 | -10.3%
57 | COc1ccccc1-c1nc(O)c2c(n1)Oc1c(cccc1OC)C2 | 0.655%
58 | C=C1C(C(=O)Nc2ccccc2F)C1C(=O)Nc1ccccc1F (stereo not shown) | 0.512%
59 | O=C(CSc1nnc2sc3ccccc3n12)Nc1nccs1 | -4.64%
60 | CC(C)C(=O)Nc1ccc(CN2CCOCC2)cc1 | -4.91%
61 | CCc1c(C#N)c(N)nc(SCc2ccccc2)c1C#N | 42.7%
62 | COC(=O)c1c(NC(=O)COc2ccc(Cl)c(C)c2)sc2c1CCC(C)C2 (stereo not shown) | 7.63%
63 | CC1CN(C2=NC(=O)/C(=C\c3ccc(O)cc3)S2)CC(C)O1 (stereo not shown) | 2.13%
64 | C=CCC(CS(=O)(=O)Cc1ccccc1)C(=O)N[C@@H](CC)C(=O)c1nc2ccccc2o1 (stereo partly shown) | -1.83%
65 | CCOc1ccc(NC(=O)c2ccnn2CC)cc1 | -4.82%
66 | O=C(CCC1CCCC1)Nc1ccccc1C(=O)O | -0.519%
67 | CC1(C)CC(=O)C2=C(C1)OC(N)=C(C#N)C2c1ccc(Br)s1 (stereo not shown) | -1.38%
68 | CCN(CCO)Cc1csc2ccc(Br)cc12 | 4.22%
69 | CSc1ccc(CN2CCCC(CO)C2)cc1 (stereo not shown) | 4.22%
70 | CCc1ccc(CN2CCN(C(=O)c3ccco3)CC2)cc1 | 1.7%
71 | CCc1cc2c(ncn3cnnc23)s1 | -3.75%
72 | CCN(CCN(C)C)C1CCN(C)CC1 | -4.75%
73 | Cc1ccc(S(=O)(=O)N(CC(=O)NCCc2ccccc2)C2CCCCC2)cc1 | -2.15%
74 | CC(C)(C)c1ccc(C(=O)NCCSc2ccccn2)cc1 | 5.58%
75 | COc1ccc(C2NC(=O)C(O)=C2C(=O)c2ccc(Cl)cc2)cc1 (stereo not shown) | -4.16%

Row | Structure (SMILES) | % Inhibition @ 10 uM
76 | CCCc1ncc(C(O)c2ccccc2)n1C (stereo not shown) | -3.74%
77 | CCCn1c(=O)c2c(nc3n2CCS3)n(C)c1=O | -6.43%
78 | CCSc1cnn(C2CCCCC2)c(=O)c1O | 1.04%
79 | COC(=O)c1cnn2c(O)c(Cc3ccccc3C)c(C)nc12 | -3.78%
80 | Cc1ccccc1C1OC2(C(=O)c3ccccc3C2=O)C2C(=O)N(c3ccccc3)C(=O)C12 (stereo not shown) | 3.74%
81 | CCC[C@H](NC(=O)[C@H]1CCCC[C@H]1NC(=O)c1ccc(-c2csc(N3CCN(C)CC3)n2)cc1)C(=O)c1nc2ccccc2o1 | -1.61%
82 | COc1ccc(S(=O)(=O)N2CCC(NC(=O)NCC3CCCO3)CC2)cc1 (stereo not shown) | 2.29%
83 | COc1cc(OC)cc(-c2nc3nc(C)c(CCC(=O)NCCCN4CCCC4=O)c(C)n3n2)c1 | -4.34%
84 | Cc1nn(-c2ccc(Cl)cc2)c(O)c1/C=N/c1ccc(C(=O)O)c(O)c1 | -5.96%
85 | Cc1ccc(NC(=O)/C=C/c2ccccc2)c(C)c1 | 3.82%
86 | Cc1ccc(OC(C)c2nc(-c3ccc(Br)o3)no2)cc1C (stereo not shown) | -2.63%
87 | CC(=O)c1cccc(NC(=O)c2ccco2)c1 | 0.392%
88 | O=c1c2ccccc2n2c(-c3cccnc3)nnc2n1Cc1ccc(F)cc1 | 3.3%
89 | CC(C)C[C@@H](NC(=O)c1cccc(NS(=O)(=O)c2ccc3oc4ccccc4c3c2)c1)C(=O)OCc1ccccc1 | -3.97%
90 | Cc1nc2ccccc2n1CCc1nc2c3ccccc3nc(SCC(=O)NCc3ccco3)n2n1 | -1.15%
91 | O=C(Nc1ccc(Cl)cc1)Nc1cc(Cl)cc(Cl)c1 | 4.33%
92 | CC1=C(C(=O)Nc2cccc(C)c2)C(c2ccc(Br)cc2)NC(=O)N1 (stereo not shown) | 0.219%
93 | C=CCOc1ccc(C2c3c(n[nH]c3-c3ccccc3O)C(=O)N2Cc2cccnc2)cc1 (stereo not shown) | 1.67%
94 | COc1cccc(C(=O)N2CCN(Cc3cccc(Cl)c3)CC2)c1 | 4.61%
95 | O=C(O)CCS(=O)(=O)c1cccc2cccnc12 | -0.458%
96 | COc1cc(CNc2ccccc2)cc(OC)c1OC | -2.03%
97 | O=C(NCC1CCCO1)c1ccc2c(c1)ncn2-c1cccc(F)c1 (stereo not shown) | 1.2%
98 | COc1ccc2nc(NC(=O)C3(S(=O)(=O)c4ccc(C)cc4)CC3)sc2c1 | -1.29%
99 | O=c1nc2s/c(=C\C3=Cc4ccccc4OC3)c(=O)n2nc1Cc1ccc(Cl)cc1 | 5.5%
100 | CCOc1ccc(C(=O)CSc2nc3ccccc3[nH]2)cc1[N+](=O)[O-] | 20.6%
